# Some of the results follow.
# Target: T1, OsWOX13 (Oryza sativa, UniProt Q5QMM3 1-267)
# T1 sequence: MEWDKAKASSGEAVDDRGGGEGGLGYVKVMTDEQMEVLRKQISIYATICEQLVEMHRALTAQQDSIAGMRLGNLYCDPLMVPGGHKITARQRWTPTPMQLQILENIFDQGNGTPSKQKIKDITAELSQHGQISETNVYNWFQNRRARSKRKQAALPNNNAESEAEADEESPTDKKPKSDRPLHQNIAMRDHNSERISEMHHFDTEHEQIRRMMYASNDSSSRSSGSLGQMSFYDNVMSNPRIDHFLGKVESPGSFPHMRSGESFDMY
# Assay: protein-binding microarray (RPBM); PBS, 2% BSA, 51.3 ng/ul salmon testes DNA, 50 uM zinc acetate, 200 nM TF, 25 C, 1 h; high values mean tight binding
# Conditions: protein: recombinant; tags: N-terminal polyhistidine and DsRed monomer fusion (pET32a); label: CyDye5-dUTP incorporated in the synthesized complementary strand; 3' TTTTT single-stranded linker to array surface; dsDNA, one strand shown
# In short: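 The binding signal is fluorescence intensity per feature, in arbitrary units, read on an Axon 4000B scanner. Polyhistidine- and DsRed-tagged transcription factors (N-terminal fusions) from E. coli BL21-CodonPlus were purified on Ni–NTA and applied at 200 nM for 1 h at 25 °C to a double-stranded, BSA-blocked custom Agilent array in buffer with 50 µM zinc acetate.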
row,Sequence,binding signal
1,ACTTTATCTAATTTAATTGCACCACGTAGGGAGAGCTGCCCGGAGTCACCTAGTGCAG,16400 fluorescence intensity (a.u.)
2,ATGAATGAGCTATTAGATTGGCTCTAGATGGATTAGAGCTCGGAGTCACCTAGTGCAG,25900 fluorescence intensity (a.u.)
3,CTTTTATTAATTATTATAAATGCTATGCACATGCCACGTTCGGAGTCACCTAGTGCAG,25300 fluorescence intensity (a.u.)
4,CCTGATTTCTAGCGAAACCGACCAGAATCCCTATTGGGCCCGGAGTCACCTAGTGCAG,21900 fluorescence intensity (a.u.)
5,TGTGCTGATTAAATGTGAGAGGCCACAGACTTGATGATATCGGAGTCACCTAGTGCAG,12200 fluorescence intensity (a.u.)
6,TATATATTTATCTAAATTGATGTGAAATACTCATTTGGAACGGAGTCACCTAGTGCAG,3280 fluorescence intensity (a.u.)
7,CCATATAATTTCGATCCACCAATCACAGCACCATCGATTTCGGAGTCACCTAGTGCAG,10100 fluorescence intensity (a.u.)
8,GTTTACATCCATTGATTAATTTAATTAGCTGCAAGAGCAACGGAGTCACCTAGTGCAG,37200 fluorescence intensity (a.u.)
9,CATTTCTATGATTGTTTCCCAGCCTATGCGAGTAGCAAGACGGAGTCACCTAGTGCAG,17900 fluorescence intensity (a.u.)
10,TTAGTGCTTAAATGATTAATCTATGGTCTAAATTATCTTTCGGAGTCACCTAGTGCAG,7610 fluorescence intensity (a.u.)
11,CAAAATAAACGACGATTGAATTTTGCAAATTAACCTTGTACGGAGTCACCTAGTGCAG,22600 fluorescence intensity (a.u.)
12,CAATCAAATTAATTACCATTCATCCTCTTAATTTAGTTTGCGGAGTCACCTAGTGCAG,19700 fluorescence intensity (a.u.)
13,TTAACGGCGAATTGATTAAGATCTGTTCAGCAGCCAGCTGCGGAGTCACCTAGTGCAG,24000 fluorescence intensity (a.u.)
14,CCCATCAATTAAATAGAAATAACAAAGAAATGGAAAACAACGGAGTCACCTAGTGCAG,5040 fluorescence intensity (a.u.)
15,GTAAGGGTTTAATTGTAATTAGGGATCACTCCAGAAGGCCCGGAGTCACCTAGTGCAG,13400 fluorescence intensity (a.u.)
16,TCCCACATGATTTTGTTTTGACTGTAGTTAGTTGGTTACTCGGAGTCACCTAGTGCAG,17800 fluorescence intensity (a.u.)
17,ATGAATGAGTTATTAGATTGATGCCATATTTGGAAGATTACGGAGTCACCTAGTGCAG,16500 fluorescence intensity (a.u.)
18,GGGAATACTAATTTACTTGATTACAGCGTTAACGAGGCATCGGAGTCACCTAGTGCAG,15200 fluorescence intensity (a.u.)
19,CAACGGTGACAGATTTGTCTAGCCTCCGACATATTGTAGCCGGAGTCACCTAGTGCAG,10100 fluorescence intensity (a.u.)

row,Sequence,binding signal
1,CCAACCCTGACAGACAAACAAGCGGAGTATGAGCCGTCGGCGGAGTCACCTAGTGCAG,4020 fluorescence intensity (a.u.)
2,TTTGATTTATATGCCATTGCCTTTGCTGAACAGAAAAGCTCGGAGTCACCTAGTGCAG,37600 fluorescence intensity (a.u.)
3,TATGGGAATTGACTTTTAATTCCAATCTCTTGTTTGGGAACGGAGTCACCTAGTGCAG,16200 fluorescence intensity (a.u.)
4,CCAACTGATTTCTTCAAGAGCACACATCCAAACAGCGTTCCGGAGTCACCTAGTGCAG,4800 fluorescence intensity (a.u.)
5,ATCAAATTTAGATTTTATTAAATTTTAGTTTACAAGAGCGCGGAGTCACCTAGTGCAG,17900 fluorescence intensity (a.u.)
6,TGCAATAATAAAATTCCTTGATTGCCTAGAGGAGCTTGAGCGGAGTCACCTAGTGCAG,22300 fluorescence intensity (a.u.)
7,AAAATTACAAGATTACAACCATGGAGGGTCGTAACCAGGACGGAGTCACCTAGTGCAG,4520 fluorescence intensity (a.u.)
8,ATCTATAATTAGAGAATGTTTACTGTAGCATCACATAGGTCGGAGTCACCTAGTGCAG,22800 fluorescence intensity (a.u.)
9,TTTAAATTAGATTATCCACACCATTAGATGAGGTGAAAGACGGAGTCACCTAGTGCAG,16500 fluorescence intensity (a.u.)
10,TCCAAATGAGTCAAATTTAAGATCTGCGGAGGCACCTTCCCGGAGTCACCTAGTGCAG,4900 fluorescence intensity (a.u.)
11,CTGTTGGTTGTGATTGTTGTGGTGGGCACGCTGTTTGAACCGGAGTCACCTAGTGCAG,3670 fluorescence intensity (a.u.)
12,GGGCTAAATTTCCATTCAAGTTACATTAGGCCCAATTATGCGGAGTCACCTAGTGCAG,7340 fluorescence intensity (a.u.)
13,GATTTAACTTGGATAAATTTTAGAGGCTAAATTTGTACTGCGGAGTCACCTAGTGCAG,7380 fluorescence intensity (a.u.)
14,AGCAAATGGCCTGATTTGTTAAAGATGTGGGGCCGAATTGCGGAGTCACCTAGTGCAG,5860 fluorescence intensity (a.u.)
15,CACAAACTCACATTCATTACTGTTACGCGTCTCCACGTGCCGGAGTCACCTAGTGCAG,3430 fluorescence intensity (a.u.)
16,CCGTGATTTAAATTTACTAACAACGAGAAGAATGTTAGAGCGGAGTCACCTAGTGCAG,39800 fluorescence intensity (a.u.)
17,GTAAACTGGAGACGACGGTTATGCAAATATTTGCGAACCACGGAGTCACCTAGTGCAG,4460 fluorescence intensity (a.u.)
18,TTGTTTGTTTACGCCTTAACTAATTGCTAGTAGTAGTACGCGGAGTCACCTAGTGCAG,5950 fluorescence intensity (a.u.)

# Source: PMC7819943, “Rice protein-binding microarrays: a tool to detect cis-acting elements near promoter regions in rice”
